Measured values published in the supplement of paper PMC6451100.
The list shows a part of the results. These are enrichments in a pooled selection; single values are uncertain.

Tested on: Drosophila AGO1 (endogenous, S2-R+ lysate)
Assay: AGO1 loading enrichment factor (IP read count / input read count, not library-size normalised) (ratio); higher = more efficient loading into AGO1
Details: randomized region: 5' 5N of miR-317 loop
Protocol: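 HISSA: 5'-phosphorylated, 32P-labelled 20-nt ssRNA oligos (miR-317 loop, first 5 nt randomized, constant 3' part TGAAATGCAAGCAAG as printed in methods; DNA letters for RNA) incubated 1 h at 25°C in S2-R+ cell lysate. Endogenous AGO1 was immunopurified with anti-AGO1 and bound oligos were sequenced after splinted ligation.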
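Further: S2-R+ lysate came from cells stably expressing FLAG-tagged AGO2, enrichment per 5N variant computed with FASTAptamer, reads lacking the constant 3′ segment discarded.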

Row | Sequence | AGO1 loading enrichment factor
1 | AGCCCTGAAATGCAAGCAAG | 0.133
2 | CTCAATGAAATGCAAGCAAG | 0.0698
3 | TAATTTGAAATGCAAGCAAG | 0.151
4 | AGGGTTGAAATGCAAGCAAG | 0.29
5 | AGCTATGAAATGCAAGCAAG | 0.0765
6 | GCGCCTGAAATGCAAGCAAG | 1.18
7 | CAGTTTGAAATGCAAGCAAG | 0.0401
8 | TATCATGAAATGCAAGCAAG | 0.767
9 | GGGAGTGAAATGCAAGCAAG | 0.77
10 | TTAGGTGAAATGCAAGCAAG | 0.233
11 | TAATATGAAATGCAAGCAAG | 0.284
12 | GTACTTGAAATGCAAGCAAG | 0.0328
13 | CGCCATGAAATGCAAGCAAG | 0.25
14 | ATGCATGAAATGCAAGCAAG | 0.412
15 | AACAGTGAAATGCAAGCAAG | 0.156
16 | ACCAATGAAATGCAAGCAAG | 0.134
17 | TGGAATGAAATGCAAGCAAG | 0.31
18 | TTAAATGAAATGCAAGCAAG | 0.778
19 | CTATTTGAAATGCAAGCAAG | 0.0648
20 | TTTACTGAAATGCAAGCAAG | 0.953
21 | TTCTTTGAAATGCAAGCAAG | 0.288
22 | CCTTTTGAAATGCAAGCAAG | 0.0182
23 | TACCATGAAATGCAAGCAAG | 0.386
24 | GCTCATGAAATGCAAGCAAG | 0.0697
25 | CTTATTGAAATGCAAGCAAG | 0.0136

Row | Sequence | AGO1 loading enrichment factor
26 | CAGTCTGAAATGCAAGCAAG | 0.128
27 | TTACATGAAATGCAAGCAAG | 0.221
28 | AAGAATGAAATGCAAGCAAG | 0.188
29 | GGGCGTGAAATGCAAGCAAG | 0.413
30 | CAGGCTGAAATGCAAGCAAG | 0.0332
31 | CTCCTTGAAATGCAAGCAAG | 0.0359
32 | AAGAGTGAAATGCAAGCAAG | 0.236
33 | AAGCATGAAATGCAAGCAAG | 0.135
34 | AGGGCTGAAATGCAAGCAAG | 0.0472
35 | TGTGATGAAATGCAAGCAAG | 0.248
36 | CGCACTGAAATGCAAGCAAG | 0.0857
37 | TTGCGTGAAATGCAAGCAAG | 0.174
38 | CCCTCTGAAATGCAAGCAAG | 0.943
39 | TTCGTTGAAATGCAAGCAAG | 0.224
40 | TATACTGAAATGCAAGCAAG | 0.476
41 | TCCAATGAAATGCAAGCAAG | 0.166
42 | CCAGCTGAAATGCAAGCAAG | 0.0313
43 | GCGTATGAAATGCAAGCAAG | 0.0848
44 | GAACTTGAAATGCAAGCAAG | 0.0498
45 | ATTTTTGAAATGCAAGCAAG | 0.0661
46 | GCCCGTGAAATGCAAGCAAG | 0.0717
47 | AGTATTGAAATGCAAGCAAG | 0.0959
48 | GCCGCTGAAATGCAAGCAAG | 0.0264
49 | GCCCCTGAAATGCAAGCAAG | 0.116
50 | TATGATGAAATGCAAGCAAG | 0.304

Row | Sequence | AGO1 loading enrichment factor
51 | ATACCTGAAATGCAAGCAAG | 0.179
52 | TACAGTGAAATGCAAGCAAG | 0.441
53 | ACCTTTGAAATGCAAGCAAG | 0.394
54 | GTTATTGAAATGCAAGCAAG | 0.0975
55 | GCCGTTGAAATGCAAGCAAG | 0.098
56 | AATCGTGAAATGCAAGCAAG | 0.176
57 | AAACTTGAAATGCAAGCAAG | 0.0459
58 | CTGCGTGAAATGCAAGCAAG | 0.131
59 | TAACTTGAAATGCAAGCAAG | 0.282
60 | TGCCCTGAAATGCAAGCAAG | 0.266
61 | GTGCGTGAAATGCAAGCAAG | 0.124
62 | ACCGGTGAAATGCAAGCAAG | 0.303
63 | ATCTCTGAAATGCAAGCAAG | 0.156
64 | ATCAGTGAAATGCAAGCAAG | 0.243
65 | TCTCATGAAATGCAAGCAAG | 0.588
66 | ATGTCTGAAATGCAAGCAAG | 0.173
67 | TCGTTTGAAATGCAAGCAAG | 0.274
68 | GCAAGTGAAATGCAAGCAAG | 0.0277
69 | GTTACTGAAATGCAAGCAAG | 0.105
70 | TGAAATGAAATGCAAGCAAG | 0.186
71 | TCACCTGAAATGCAAGCAAG | 1.26
72 | AGGCATGAAATGCAAGCAAG | 0.0747
73 | CTACGTGAAATGCAAGCAAG | 0.0797
74 | AAATATGAAATGCAAGCAAG | 0.116
75 | CTAATTGAAATGCAAGCAAG | 0.13

Row | Sequence | AGO1 loading enrichment factor
76 | GACAGTGAAATGCAAGCAAG | 1.82
77 | GGATTTGAAATGCAAGCAAG | 0.0728
78 | CAATTTGAAATGCAAGCAAG | 0.172
79 | AACACTGAAATGCAAGCAAG | 0.238
80 | CCATATGAAATGCAAGCAAG | 0.0956
81 | TTCATTGAAATGCAAGCAAG | 0.213
82 | TTGTATGAAATGCAAGCAAG | 0.234
83 | AGGGATGAAATGCAAGCAAG | 2.92
84 | CATCTTGAAATGCAAGCAAG | 0.0253
85 | ATATATGAAATGCAAGCAAG | 0.106
86 | AGATTTGAAATGCAAGCAAG | 0.0568
87 | ATTTATGAAATGCAAGCAAG | 0.128
88 | CGTTGTGAAATGCAAGCAAG | 0.00649
89 | GTCCGTGAAATGCAAGCAAG | 0.0948
90 | CGTTATGAAATGCAAGCAAG | 0.0891
91 | CACCGTGAAATGCAAGCAAG | 0.09
92 | ACCCGTGAAATGCAAGCAAG | 0.345
93 | GTGAGTGAAATGCAAGCAAG | 0.133
94 | AGGCTTGAAATGCAAGCAAG | 0.0177
95 | TAAGTTGAAATGCAAGCAAG | 0.324
96 | GCATCTGAAATGCAAGCAAG | 0.0756
97 | AATGGTGAAATGCAAGCAAG | 0.191
98 | GTCATTGAAATGCAAGCAAG | 0.141
99 | GTGCCTGAAATGCAAGCAAG | 0.211
100 | ATGGTTGAAATGCAAGCAAG | 0.259

Row | Sequence | AGO1 loading enrichment factor
101 | CCTGATGAAATGCAAGCAAG | 0.034
102 | TTCGGTGAAATGCAAGCAAG | 0.376
103 | TTCTCTGAAATGCAAGCAAG | 0.225
104 | CGGCGTGAAATGCAAGCAAG | 0.153
105 | TTCAGTGAAATGCAAGCAAG | 0.386
106 | TGCTATGAAATGCAAGCAAG | 0.207
107 | ACAACTGAAATGCAAGCAAG | 0.175
108 | AGGTTTGAAATGCAAGCAAG | 0.0606
109 | CCCCCTGAAATGCAAGCAAG | 0.2
110 | CATCGTGAAATGCAAGCAAG | 0.113
111 | CGCTGTGAAATGCAAGCAAG | 0.0314
112 | AGATATGAAATGCAAGCAAG | 0.107
113 | CCTGCTGAAATGCAAGCAAG | 0.0086
114 | GGATATGAAATGCAAGCAAG | 0.117
115 | GCTACTGAAATGCAAGCAAG | 0.0632
116 | TGGTGTGAAATGCAAGCAAG | 0.199
117 | GGCAATGAAATGCAAGCAAG | 0.108
118 | GTACATGAAATGCAAGCAAG | 0.188
119 | TACGGTGAAATGCAAGCAAG | 0.486
120 | AAAGGTGAAATGCAAGCAAG | 0.158
121 | GGCATTGAAATGCAAGCAAG | 0.0739
122 | CTAAATGAAATGCAAGCAAG | 0.129
123 | AGTGGTGAAATGCAAGCAAG | 0.297
124 | TCACTTGAAATGCAAGCAAG | 1.1
125 | TTTTCTGAAATGCAAGCAAG | 0.25
